Laboratory results reported in PubChem BioAssay AID602342 (Broad Institute, 2012).
The campaign covered roughly 340,000 compounds. About 1,000 (0.29%) were called active. The inconclusive results got no clear call from the source; some entries with a clear call stand among them for comparison.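 The calls were made as follows: active = mean replicate activation score at least 90 and every replicate individually at or above 90; inconclusive = only one of the two criteria met; inactive = neither criterion met.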 Some compounds were tested as several samples or in several runs, with calls that do not always agree.

Test: miR-122 Renilla sensor signal increase in Huh7, primary screen, miR-122 inhibitor project, cell-based, single point, plate reader (AID 602342);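 also: higher luciferase means less miR-122 activity so hits act as miR-122 inhibitors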
Conditions: Huh7 miR-122 Renilla luciferase sensor, 48 h, active compounds read high, neutral wells = 0, positive control = 100; at 12.5 µM unless noted

Structure (SMILES) | activation (reporter increase)
COc1ccc(NS(=O)(=O)c2cc(NC(=O)c3cccc(OCc4c(C)noc4C)c3)ccc2OC)cc1 | inconclusive: 94.8%
CC(C)CCNc1nc(N)c([N+](=O)[O-])c(NCCO)n1 | inactive: -5.37%
CCCCn1nc(NC(=O)CC)c2cc3cc(OC)ccc3nc21 | inactive: 9.06%
C[C@H]1CN([C@@H](C)CO)C(=O)Cc2cc(NC(=O)Nc3ccc(C(F)(F)F)cc3)ccc2O[C@H]1CN(C)S(=O)(=O)c1ccc(F)cc1 | inconclusive: 98.5% [at 16.7 µM]
Cc1ccc(S(=O)(=O)NC(C)(C)CSc2nnc(Nc3ccccc3)s2)cc1 | inconclusive: 95.4%
O=C(Nc1ccc(S(=O)(=O)Nc2ncccn2)cc1)c1ccc(F)c(S(=O)(=O)N2CCOCC2)c1 | inactive: -0.272%
CN1CC(c2ccc(C#N)cc2)C2(COc3ccccc3C2=O)C12C(=O)Nc1ccccc12 (centres undefined) | inconclusive: 90.4%
CCC(=O)Nc1ccc(C(=O)Nc2cccc(C)n2)cc1 | active: 218%
COc1ccc(OCc2cc(C(=O)NCCc3ccccc3)no2)c(Cl)c1 | inconclusive: 111%
C[C@@H]1CCCCO[C@@H](CN(C)S(=O)(=O)c2ccc(Cl)cc2)[C@H](C)CN([C@H](C)CO)C(=O)c2cc(NS(=O)(=O)c3cccs3)ccc2O1 | inactive: -20.7% [at 16.7 µM]
O=C(C1CCCCC1)N1[C@H](CO)[C@@H]2c3ccccc3N(S(=O)(=O)c3ccccc3)C[C@@H]21 | inconclusive: 95.6% [at 16.7 µM]
COc1ccc(NS(=O)(=O)c2cc(OC)ccc2OC)cc1 | inconclusive: 130%
O=C(Nc1ccccc1)c1ccc(NC2CCCCC2)c(S(=O)(=O)N2CCOCC2)c1 | inconclusive: 99%
CC(=O)N1[C@@H](CO)[C@H](c2ccccc2)[C@@H]1CNC(=O)CN1CCOCC1 | inconclusive: 108% [at 16.7 µM]
COc1cc(S(=O)(=O)NC2CCCC2)c(OC)cc1C | inconclusive: 129%
COc1ccc(S(=O)(=O)NCc2ccccn2)cc1NC(=O)c1ccccc1C | inconclusive: 94.5%
CCCNC(=O)C[C@@H]1CC[C@@H]2[C@H](COc3ccc(NC(=O)Nc4c(C)noc4C)cc3C(=O)N2C)O1 | inconclusive: 258% [at 16.7 µM]
CCOc1ccc(Br)cc1S(=O)(=O)NCc1ccncc1 | inconclusive: 94.7%
COc1ccc(NS(=O)(=O)c2ccc(Cl)c(N)c2)cc1Br | inconclusive: 90.9%
COc1ccc(CN2CCNC(=O)C2CC(=O)NCCCn2nnc3ccccc32)cc1C (centres undefined) | inactive: -1.4%
CCCCCNS(=O)(=O)c1cc2c3c(c1)CCC(=O)N3CCC2 | inconclusive: 98.8%
CCCCOc1ccccc1C1CC(=O)NC2=C1C(=O)CCC2 (centres undefined) | active: 109%
Cc1cc(C)cc(NS(=O)(=O)c2ccc3oc(=O)ccc3c2)c1 | active: 105%
CCCNC(=O)NC[C@H]1[C@@H](c2ccc(C3=CCCC3)cc2)[C@@H](CO)N1C(C)=O | inconclusive: 92.9% [at 16.7 µM]
CCN1CCc2c(sc(NC(=O)C3COc4ccccc4O3)c2C(N)=O)C1 (centres undefined) | inactive: 1.33%

Structure (SMILES) | activation (reporter increase)
CN1c2ccc(-c3cccc(F)c3)cc2[C@H]2[C@H](CCN2C(=O)C2CC2)[C@H]1CO | active: 99.8% [at 16.7 µM]
O=S(=O)(NCC1CCCO1)c1cccc(C(F)(F)F)c1 (centres undefined) | inconclusive: 93.8%
CN1c2ccc(-c3ccccc3F)cc2[C@H]2[C@H](CCN2S(=O)(=O)c2ccccc2F)[C@H]1CO | inconclusive: 99.7% [at 16.7 µM]
COc1ccc(S(=O)(=O)NCc2ccccn2)cc1NC(=O)c1ccc(C)cc1 | inconclusive: 93.7%
Cc1cccc2nc(-c3cccc(NC(=O)Cc4ccccc4)c3)cn12 | inactive: 7.21%
CCOC(=O)c1c(C)[nH]c(C)c1S(=O)(=O)NCCc1ccc(SC)cc1 | inconclusive: 104%
COc1cc(NS(=O)(=O)c2ccc(Br)s2)cc(OC)c1 | inconclusive: 99.3%
Cn1nc(CC(=O)Nc2ccc(N3CCN(C(=O)OC(C)(C)C)CC3)cc2)c2ccccc2c1=O | inactive: -6.72%
CC(=O)c1c(C)[nH]c(C(=O)N(CCc2ccccc2)Cc2ccccc2)c1C | inconclusive: 103%
O=C(NCC[C@@H]1CC[C@H](NC(=O)c2ccc3c(c2)OCO3)[C@@H](CO)O1)Nc1cc(F)ccc1F | inactive: -4.68% [at 16.7 µM]
c1ccc(CNc2nc(-c3ccccc3)nc3ccccc23)cc1 | inactive: -2.23%
CCOC(=O)c1c(C)[nH]c(C)c1S(=O)(=O)NCCCc1ccco1 | active: 128%
Cc1ccc(S(=O)(=O)NCCC2=CCCCC2)cc1 | inconclusive: 90.7%
CCOc1ccc(-c2ccc(NS(=O)(=O)c3cc([N+](=O)[O-])c(C)c([N+](=O)[O-])c3)cc2)nn1 | inconclusive: 92.1%
COc1ccc(NS(=O)(=O)c2ccc(OC)c3ccccc23)cn1 | active: 356%
Cc1ccc(S(=O)(=O)Nc2ccc3nc(N)sc3c2)cc1 | active: 268%
CCOc1ccccc1N1CCN(C(=O)c2ccc3[nH]c(C)c(C)c3c2)CC1 | inconclusive: 100%
CCc1cccc(NC(=O)CCNS(=O)(=O)c2cc(Br)cnc2N)c1 | inconclusive: 91.8%
Cc1ccc(S(=O)(=O)N(C)C[C@H]2Oc3ccc(NC(=O)NC4CCCCC4)cc3CC(=O)N([C@H](C)CO)C[C@@H]2C)cc1 | inactive: -1.78% [at 16.7 µM]
Cc1ccc(S(=O)(=O)N(C)C[C@@H]2Oc3ccc(NC(=O)Nc4ccc(C(F)(F)F)cc4)cc3CC(=O)N([C@@H](C)CO)C[C@@H]2C)cc1 | inconclusive: 94.7% [at 16.7 µM]
CCCCNC(=O)CN1C(=O)NC2(CCOc3ccccc32)C1=O (centres undefined) | inconclusive: 103%
Cc1c(C(=O)N(C)CCC#N)oc2ccc(S(=O)(=O)N3CCOCC3)cc12 | inconclusive: 97.1%
COc1ccccc1S(=O)(=O)Nc1ccc2c(c1)OC[C@@H](C)NC[C@H](C)[C@H](OC)CN(C)C2=O | inactive: 6.36% [at 16.7 µM]
Cc1ccc(CSCc2ccc(C(=O)NCCCN3CCOCC3)o2)cc1 | inactive: 8.49%
O=S(=O)(Nc1ccc(S(=O)(=O)N2CCCC2)cc1)c1ccccc1Br | inconclusive: 93.4%

Structure (SMILES) | activation (reporter increase)
COc1cccc(N2CCN(C(=O)c3ccc(CS(=O)c4ccccc4Cl)o3)CC2)c1 (centres undefined) | inconclusive: 99.3%
COc1ccc(/C=C/C(=O)c2ccc(OC)cc2OC)c(OC)c1 | inconclusive: 92.3%
Cc1ccc(-c2ccc3c(c2)O[C@@H](CN(C)Cc2ccncc2)[C@H](C)CN([C@@H](C)CO)S3(=O)=O)cc1 | inactive: -1.01% [at 16.7 µM]
CCCCNS(=O)(=O)c1ccc2nc(SCC(N)=O)[nH]c2c1 | active: 153%
CC(C)CC#Cc1ccc2c(c1)O[C@@H](CN(C)C(=O)C1CCC1)[C@@H](C)CN([C@H](C)CO)S2(=O)=O | active: 157% [at 16.7 µM]
Cc1ccc(C)c(S(=O)(=O)Nc2ccc(C(=O)N3CCC3)cc2)c1 | inconclusive: 102%
CCOc1ccc(Br)cc1S(=O)(=O)Nc1cccc(S(=O)(=O)N(C)c2ccccc2)c1 | inconclusive: 92.2%
COc1cccc(NS(=O)(=O)c2cc(C)ccc2OC)c1 | inconclusive: 91.7%
C[C@H]1CN([C@@H](C)CO)S(=O)(=O)c2ccc(-c3ccc(F)cc3)cc2O[C@H]1CN(C)Cc1cccc(F)c1 | inactive: 0.563% [at 16.7 µM]
N[C@@H](Cc1cc(I)c(Oc2ccc(O)c(I)c2)c(I)c1)C(=O)O | active: 93.2%
CCn1nccc1C(=O)Nc1ccc(S(=O)(=O)NC23CC4CC(CC(C4)C2)C3)cc1 | inconclusive: 93.6%
C[C@@H]1CN([C@@H](C)CO)C(=O)Cc2cc(NC(=O)Nc3ccc4c(c3)OCO4)ccc2O[C@@H]1CN(C)C(=O)Nc1cccc2ccccc12 | inconclusive: 92.3% [at 16.7 µM]
CN1c2ccc(-c3cccc(F)c3)cc2[C@H]2[C@H](CCN2S(=O)(=O)c2cccc(F)c2)[C@H]1CO | inconclusive: 90.1% [at 16.7 µM]
C[C@H](CO)N1C[C@H](C)[C@H](CN(C)Cc2ccc3c(c2)OCO3)Oc2c(NC(=O)Nc3ccc(C(F)(F)F)cc3)cccc2C1=O | inactive: 9.88% [at 16.7 µM]
C[C@@H]1CN([C@H](C)CO)C(=O)c2cc(NC(=O)Nc3cccc4ccccc34)ccc2O[C@@H]1CN(C)C(=O)Nc1ccccc1 | inconclusive: 90.2% [at 16.7 µM]
CN1CCN(C(=O)c2cc3nc(-c4ccccc4)cc(-c4ccccc4)n3n2)CC1 | inconclusive: 106%
COc1ccccc1CNC(=O)COC(=O)Cn1cnc2c1c(=O)n(C)c(=O)n2C | inactive: -3.46%
CCCCOC(=O)NC1CCc2cc(OC)c(OC)c(OC)c2-c2ccc(SC)c(=O)cc21 (centres undefined) | inconclusive: 93%
O=C(COC(=O)c1cccc(NS(=O)(=O)/C=C/c2ccccc2)c1)Nc1ccccc1OC(F)F | inconclusive: 92.6%
c1csc(CNc2ncnc3ccc(-c4ccc5c(c4)OCO5)cc23)c1 | inconclusive: 106%
COc1ccc(NC(=O)CCN2C(=O)c3ccccc3C2=O)cc1 | inconclusive: 91.4%
COc1ccc(NS(=O)(=O)c2cccc3cccnc23)cc1Cl | inconclusive: 92.2%
CCCn1c(N)c(C(=O)CSc2nnc(Cc3cccs3)n2C2CC2)c(=O)n(C)c1=O | inconclusive: 97.2%
Cc1cc2c(cc1S(=O)(=O)NCCc1ccccc1)NC(=O)CO2 | inconclusive: 104%
